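Briefly, cells in 96-well plates were exposed to five compound concentrations for 48 h, and endpoints were estimated by linear interpolation. GI50 is the concentration that inhibits growth by half. TGI: total growth inhibition.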

The assay deals with NCI-H322M lung. As to the kind of experiment: NCI anticancer screen, dose series, 48 h.

With `CC1(C)CC[C@]2(C(=O)Nc3ccccc3)CC[C@]3(C)C(=CC[C@@H]4[C@@]5(C)CC[C@H](N)C(C)(C)[C@@H]5CC[C@]43C)[C@H]2C1`, the GI50 was 15.2 µM and the TGI is 28.5 µM.

In the case of `COc1ccc(C(=O)COc2ccc(NC(=O)Nc3ccc(Cl)c(C(F)(F)F)c3)cc2)cc1`, the GI50 is 2.33 µM and the TGI is more than 100 µM.

With `CCCN(CCC)S(=O)(=O)c1ccc(C(=O)O)cc1.CCCN(CCC)S(=O)(=O)c1ccc(C(=O)O)cc1.[Cl][Pt+2][Cl].[NH2-].[NH2-]`, the GI50 is 9.17 µM and the TGI is more than 100 µM.

For `COc1ccc(CN2[C@@H](C(=O)NCc3ccc(C(=O)NO)cc3)Cc3c([nH]c4ccccc34)[C@@H]2C)cc1`, the GI50 is 2.59 µM and the TGI was more than 21 µM.

For the origin of these results see PubChem BioAssay (NCI).
